We go through 88 molecules from PubChem BioAssay AID463173 (ICCB-Longwood Screening Facility, Harvard Medical School, 2010).

Hit rate of the full screen: of about 52,000 compounds, about 1,700 (3.3%) were called active. Rule as the data show it: active = survival mostly below about 52% (no sharp cut-off); inactive = mostly above about 56%. This is one part of the list.

This test has as its system Wild type. As to the kind of experiment: S. aureus survival, RN4220 and DeltatarO strains – OD600, teichoic acid synthesis inhibitors, primary screen (AID 463173). The conditions noted are these: S. aureus RN4220 wild type/DeltatarO growth, OD600, 18 h, stronger effect = lower value, screened at 18.75 µg/mL (by protocol).
Consider `Cc1ccc(NC(=O)Cn2c(=O)n(Cc3nc(-c4ccccc4)no3)c(=O)c3cc4c(cc32)OCO4)cc1F`, for which the survival is inactive: 89%.

With `O=C(COc1ccccc1F)Nc1ccc2nc(SCCOc3ccccc3)sc2c1`, the survival is inactive: 92%.

In the case of `CCCOc1ccc(C(=O)Nc2ccc3oc(-c4ccncc4)nc3c2)cc1`, the survival is inactive: 67%.

As for `O=C(Nc1nnc(N2CCCCCC2)s1)Nc1cc(F)ccc1F`, the survival is inactive: 109%.

For the molecule `CCOc1ccc(CCNC(=O)C2CCN(C(=O)N3CC(CC)Oc4ccccc43)CC2)cc1` (stereo not drawn), the survival was inactive: 91%.

With `CCCCN(CC)CCCNC(=O)CS(=O)(=O)Cc1nc(-c2ccc(C)cc2)oc1C`, the survival was inactive: 92%.

Take `COc1ccc(NC(c2nnc(-c3ccccc3)o2)c2ccccc2F)cc1Cl` (stereo not drawn): the survival is inactive: 65%.

As to `COc1cc(NC(=O)CSc2nnc(C)n3c2cc2oc(C)cc23)cc(OC)c1`, the survival is inactive: 65%.

As for `Cc1ccccc1-c1noc(-c2ccc(N3CCCCC3)c([N+](=O)[O-])c2)n1`, the survival was inactive: 124%.

In the case of `O=C(NCc1ccc(Cl)cc1)c1cnc2sc(N3CCOCC3)nn2c1=O`, the survival was inactive: 64%.

Take `CCOCCCN(Cc1ccco1)S(=O)(=O)c1cc2c(cc1Cl)NC(=O)CO2`: the survival was inactive: 68%.

`Cc1c2cnn(CC(=O)NCc3ccc(F)cc3)c(=O)c2c(C)n1Cc1cccc(Cl)c1`: the survival is inactive: 94%.

With `COCCCNC(=O)c1c(NC(=O)Cc2coc3c(C)c(C)ccc23)sc2c1CCCC2`, the survival is inactive: 87%.

As to `COc1cccc(CNC(=O)CCS(=O)(=O)c2ccc3c(c2)oc(=O)n3C)c1`, the survival was inactive: 59%.

As to `COCCN(Cc1cccs1)S(=O)(=O)c1cc(-c2cc(C)no2)ccc1C`, the survival is inactive: 131%.

As for `Cn1nnc2c(N3CCN(c4cccc(Cl)c4)CC3)ncnc21`, the survival is inactive: 73%.

For `CCCc1cc(NCCc2ccc(OC)cc2)n2ncnc2n1`, the survival is inactive: 106%.

With `CCC(Sc1nnc2c(n1)[nH]c1ccccc12)C(=O)Nc1nnc(C(C)C)s1` (stereo not drawn), the survival was inactive: 89%.

On to `COC(=O)C1C(C(C)C)N(c2ccccc2)OC1(C)O` (stereo not drawn), for which the survival is inactive: 106%.

Consider `CCCCOC(=O)c1c(N)n(-c2ccc(OC)cc2OC)c2nc3ccccc3nc12`, for which the survival is inactive: 86%.

As for `Cc1ccc(CCNS(=O)(=O)c2cc(-c3cc(C)no3)ccc2C)cc1`, the survival was inactive: 72%.

Consider `Cc1cccc(-n2ncc(C(=O)N3CCOCC3)c2C2CCN(C(=O)OC(C)(C)C)CC2)c1`, for which the survival is inactive: 89%.

For the molecule `CC(C)N(C(=O)Cn1cc(SCC(=O)Nc2ccccc2F)c2ccccc21)C(C)C`, the survival was inactive: 86%.

Turning to `CCOc1ccc(C(=O)NCc2ccc3c(c2)CCN3C(=O)c2ccc(Cl)cc2)cc1`, the survival is inactive: 81%.

As to `O=C(NC1CC(=O)N(c2cccc(F)c2)C1)c1cccs1` (stereo not drawn), the survival is inactive: 77%.

With `Cc1c(Cl)cccc1NC(=O)N1CCN(C(=O)c2nsc3ccccc23)CC1`, the survival was inactive: 133%.

Regarding `Cc1ccccc1Nc1cc(C(=O)NCCCN2CCN(c3cccc(Cl)c3)CC2)c2ccccc2n1`, the survival is inactive: 63%.

On to `CC(C)C(=O)Nc1ccc2nc(SCC(=O)N3CCCC3)sc2c1`, for which the survival was inactive: 87%.

On to `CCCN(C(=O)c1cc2c(=O)oc3ccccc3c2s1)c1ccc(CC)cc1`, for which the survival is inactive: 69%.

As to `CCc1ccc(OCC(=O)NC(Cc2c[nH]c3ccccc23)C(=O)O)cc1` (stereo not drawn), the survival was inactive: 62%.

For the molecule `Cc1c(CCC(=O)NCCc2ccccc2)c(=O)oc2c(C)c(O)ccc12`, the survival was inactive: 90%.

As for `CCc1ccc(NC(=O)c2ccc(CN3CC(=O)N4CCCCC4C3=O)cc2)cc1` (stereo not drawn), the survival is inactive: 87%.

`Cc1ccc(C(C)C)c(OCCSc2nc(-c3ccccc3F)nc3cc(=O)[nH]n23)c1`: the survival is inactive: 82%.

As for `Cc1ccc(Cn2c(C(=O)O)c(CNCc3ccc(OC(C)C)cc3)c3ccc(C)cc32)cc1`, the survival was inactive: 22%.

In the case of `CC(=O)OCC1OC(n2ccc3ccccc32)C(OC(C)=O)C(OC(C)=O)C1OC(C)=O` (stereo not drawn), the survival is inactive: 105%.

For `COc1ccc(OC)c(NC(=O)CSc2ccc(-c3cccs3)nn2)c1`, the survival is inactive: 88%.

With `COc1cc(OC)c(NC(=O)C2CCN(S(=O)(=O)c3c(C)noc3/C=C/c3c(C)cc(C)cc3C)CC2)cc1Cl`, the survival is inactive: 70%.

Take `COc1cccc(CNC(=O)c2cc(C)nc3c2c(C)nn3-c2ccc(C)cc2)c1`: the survival is inactive: 81%.

Consider `COc1cccc(-n2c(=O)c3c(C)c(C)sc3n(CC(=O)NCCc3ccc(OC)c(OC)c3)c2=O)c1`, for which the survival is inactive: 89%.

In the case of `COc1cccc(OCc2nc3ccccc3n2CCOc2ccc(C)cc2)c1`, the survival was inactive: 62%.

Turning to `CN(Cc1ccccc1)C(=O)c1cn(C)c2ccc(S(=O)(=O)N3CCCCC3)cc2c1=O`, the survival was inactive: 79%.

For the molecule `Cn1c(=O)oc2cc(S(=O)(=O)NC(Cc3ccccc3)C(=O)Nc3ccc(F)cc3)ccc21` (stereo not drawn), the survival was inactive: 79%.

Turning to `CCOC(=O)c1c(NC(=O)C(C)Sc2cn(CCNC(=O)c3c(F)cccc3F)c3ccccc23)sc2c1CCC2` (stereo not drawn), the survival was inactive: 85%.

`CCn1c(C(=O)NCc2ccc(F)cc2)cc2oc3ccccc3c21`: the survival is inactive: 115%.

For `CC12CN3CC(c4ccccc4)(CN(C1)C3c1ccc(O)cc1)C2=O` (stereo not drawn), the survival was inactive: 60%.

With `COc1ccc(OC)c(NS(=O)(=O)c2cc3c(cc2Cl)N(C(C)=O)CCO3)c1`, the survival is inactive: 88%.

`CCCC(=O)Nc1nncs1`: the survival is inactive: 109%.

As for `CCOc1ccc(NC(=O)CC2C(=O)N(c3ccc(F)cc3)C(=O)N2Cc2ccc(OC)c(OC)c2)cc1` (stereo not drawn), the survival is inactive: 85%.

Turning to `COC(=O)c1c(NC(=O)C(C)Oc2ccc(Cl)c(C)c2)sc(C)c1C` (stereo not drawn), the survival was active: 10%.

In the case of `Cc1ccc(-c2cc(C(=O)Nc3cc([N+](=O)[O-])ccc3C)no2)cc1F`, the survival was inactive: 94%.

Turning to `Cc1ccc(Sc2c(C)nn(-c3ccccc3)c2OC(=O)C(C)(C)C)cc1`, the survival was active: -6%.

On to `CCCc1nc(NCCc2cccs2)c2nnn(Cc3ccccc3Cl)c2n1`, for which the survival is inactive: 104%.

In the case of `COc1ccc(OC)c(CCNC(=O)CS(=O)(=O)Cc2nc(-c3cccc(Cl)c3)oc2C)c1`, the survival is inactive: 70%.

For `COc1ccc(CCNc2oc(/C=C/c3cc(OC)c(OC)c(OC)c3)nc2C#N)cc1OC`, the survival is inactive: 85%.

For `CCOC(=O)c1ccc(N2C(=O)c3n[nH]c(-c4cccs4)c3C2c2ccc(OCC)cc2)cc1` (stereo not drawn), the survival was inactive: 88%.

Consider `CCN1C(=O)c2ccccc2S(=O)c2ccc(C(=O)NCc3ccc(OC)cc3)cc21` (stereo not drawn), for which the survival is inactive: 83%.

On to `Cc1ccc(C)c2sc(NC(=O)c3ccc(S(=O)(=O)N4CCC(C)CC4)cc3)nc12`, for which the survival is inactive: 88%.

On to `O=C(CSc1nc2cc(C(=O)NC3CCCC3)ccc2c(=O)n1CC1CCCO1)c1cccc(Cl)c1` (stereo not drawn), for which the survival is active: -3%.

With `O=C(NCCc1ccc(Cl)cc1)c1cnc2sc(N3CCOCC3)nn2c1=O`, the survival was inactive: 73%.

In the case of `COc1cc(OC)c(Nc2nc3ccccc3c3nncn23)cc1Cl`, the survival is inactive: 136%.

Take `O=C(NCc1ccccc1Cl)c1ccc2c(c1)NC(=O)C(CS(=O)(=O)Cc1ccc(F)cc1Cl)N2` (stereo not drawn): the survival is inactive: 72%.

As for `Cc1oc(-c2cccc(Cl)c2)nc1CSc1nncn2c1cc1occc12`, the survival is inactive: 104%.

Consider `CCOc1ccccc1NC(=O)NCc1ccc2c(c1)CCN2C(=O)c1ccccc1`, for which the survival was inactive: 152%.

On to `COc1ccc(/C=C\c2onc(C)c2S(=O)(=O)N2CCC(C(=O)Nc3ccc(F)cc3F)CC2)cc1`, for which the survival was inactive: 80%.

Regarding `CN(C)c1ccc(CN(Cc2ccco2)C(=O)c2ccc(C(C)(C)C)cc2)cc1`, the survival is inactive: 70%.

In the case of `Cc1ccc(-c2nc3nc(C)cc(N4CCN(c5cccc(C)c5C)CC4)n3n2)cc1`, the survival is inactive: 115%.

For `Cc1c(Cl)ccc2sc(N3CCN(C(=O)C(C)C)CC3)nc12`, the survival is inactive: 94%.

`CCOC(=O)c1c(C)oc2nc(C)nc(Nc3ccc(C)c(Cl)c3)c12`: the survival is inactive: 80%.

For `CCOC(=O)c1c(NC(=O)c2cc(C(C)C)on2)sc(C(C)=O)c1C`, the survival is inactive: 120%.

With `[O-][n+]1onc2c1CCC1N(O)C(c3ccccc3)CC21O` (stereo not drawn), the survival was inactive: 122%.

Turning to `O=C(O)CN1CC(=O)Nc2ccccc21`, the survival was inactive: 110%.

With `CCc1ccc(CNC(=O)c2cc(=O)[nH]c3ccc(S(=O)(=O)N4CCCCC4)cc23)cc1`, the survival is inactive: 91%.

As to `COc1ccc(CC(=O)Nc2ccc3nc(Nc4ccc(OC)cc4)cc(C)c3c2)cc1`, the survival is inactive: 47%.

Regarding `CC(C)NC(=O)N1CCN(S(=O)(=O)c2ccc3c(ccn3C)c2)CC1`, the survival is inactive: 88%.

Take `Cc1ccc(C)c(NC(=O)CN(C)S(=O)(=O)c2ccc3c(c2)CCC(=O)N3)c1`: the survival is inactive: 75%.

In the case of `CCOC(=O)c1cc(-c2ccc(OC)cc2)n(CCC(=O)NCc2ccc(OC)cc2)c1C`, the survival was inactive: 79%.

Take `CC(C(=O)c1ccccc1)n1cnc2ccccc2c1=O` (stereo not drawn): the survival is inactive: 105%.

Consider `CCCc1ncc(C(O)c2ccccc2OC)n1C` (stereo not drawn), for which the survival is inactive: 109%.

As to `Cc1ccccc1C(=O)Nc1nnc2n1CCS2`, the survival was inactive: 71%.

Turning to `CCCS(=O)(=O)c1nc(S(=O)(=O)c2ccc(C)cc2)c(N(C)Cc2ccccc2)s1`, the survival is inactive: 78%.

Regarding `COc1cccc(-c2ccc3c(N)c(C(=O)Nc4cc(C(F)(F)F)ccc4OC)sc3n2)c1`, the survival is inactive: 104%.

For `CCOC(=O)c1sc(NC(=O)C2c3ccccc3Oc3ccccc32)c(C#N)c1C`, the survival was inactive: 94%.

In the case of `CCOC(=O)c1c(C)[nH]c(C)c1S(=O)(=O)N1CCCC(C(=O)NCc2cccc(OC)c2)C1` (stereo not drawn), the survival was inactive: 77%.

In the case of `Cc1cc(C(=O)N2CCN(c3cccc(C)c3C)CC2)c2c(C)nn(-c3ccccc3)c2n1`, the survival was inactive: 121%.

In the case of `Cc1ccc(C(=O)c2cn(CC(=O)NCc3ccccc3Cl)c3nc(C)ccc3c2=O)cc1`, the survival is inactive: 88%.

For the molecule `CCCC(=O)NC(C)c1nc2ccccc2n1Cc1ccccc1` (stereo not drawn), the survival was inactive: 96%.

For `COc1ccc(S(=O)(=O)N2CCCN(CC(=O)Nc3ccc(OC)cc3OC)CC2)cc1`, the survival was inactive: 75%.

As to `COc1ccccc1CNC(=O)CCC1N=C2c3ccccc3N=C(SCC(=O)Nc3ccc(N(C)C)cc3)N2C1=O` (stereo not drawn), the survival is inactive: 80%.
